In patent US20260015418A1 (ABL BIO, published 2026):

Experiments:
[1] = target: T1, human ROR1-Fc protein (Sino Biological, 13968-H02H1) (human, UniProt Q01973 part only); experiment: DACE ELISA (ROR1-Fc coated, 4-1BB-His detection); 0 day in human serum at 37°C
T1 construct: Bought protein; also called human ROR1 protein (13968-H02H1, Fc tag)
Procedure: (§1) A 96-well microtiter plate (NUNC, 446612) was coated overnight at 4° C. with human ROR1-Fc protein (Sinobio, 13968-H02H1) at 100 ng/well in PBS. The plate was then incubated with 1% BSA buffer (1×PBS, 1% (v/v) BSA) at 200 μl/well at 37° C. for 2 hours to block non-specific binding. Thereafter, the blocking solution was discarded and fourfold dilutions of each bispecific antibody test material (starting from 100 nM) were added to the wells. The plate was incubated at 37° C. for 2 hours and then washed with PBS-T (1×PBS/0.05% (v/v) Tween-20). Subsequently, human 4-1BB-His protein (Sinobio, 10041-H08H) dissolved in 1% BSA buffer was added at 100 ng/well and incubated at 37° C. for 1 hour. After washing with PBS-T, the plate was incubated with anti-His HRP (Roche, Cat: 11965085001) at 37° C. for 1 hour. After washing, color development was performed with TMB (tetramethylbenzidine, Sigma, T0440) and the color development was stopped with 0.5M sulfuric acid (Samchun Chemicals, S1410), and the absorbance (OD) at 450-650 nm was read using a spectrophotometer. Four-parameter logistic curve analysis was performed using GraphPad software.

[2] = target: T1, human ROR1-Fc protein (Sino Biological, …); experiment: DACE ELISA; 0 day in monkey serum, against day 0
Procedure: as §1

[3] = target: T1, human ROR1-Fc protein (Sino Biological, …); experiment: DACE ELISA; 14 days in human serum, against day 0
Procedure: as §1

[4] = target: T1, human ROR1-Fc protein (Sino Biological, …); experiment: DACE ELISA; 7 days in monkey serum, against day 0
Procedure: as §1

[5] = target: T1, human ROR1-Fc protein (Sino Biological, …); experiment: DACE ELISA (ROR1-Fc coated, 4-1BB-His detection); 7 days in human serum at 37°C
Procedure: as §1

T1 sequence (Q01973 30-403 limits assumed): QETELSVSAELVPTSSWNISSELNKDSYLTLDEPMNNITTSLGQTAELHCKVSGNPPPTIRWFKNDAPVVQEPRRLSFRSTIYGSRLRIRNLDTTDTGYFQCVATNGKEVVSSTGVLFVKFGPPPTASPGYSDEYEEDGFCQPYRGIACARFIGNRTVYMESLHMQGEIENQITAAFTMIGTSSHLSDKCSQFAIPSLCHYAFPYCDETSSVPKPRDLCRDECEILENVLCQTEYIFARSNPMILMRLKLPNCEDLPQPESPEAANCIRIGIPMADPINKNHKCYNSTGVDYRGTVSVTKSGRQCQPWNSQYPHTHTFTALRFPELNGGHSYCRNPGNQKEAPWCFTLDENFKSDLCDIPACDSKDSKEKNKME

B1: BA6M11(NA)x1A10M12 anti-ROR1/anti-4-1BB bispecific antibody (bispecific antibody, human IgG1, lambda)
heavy: EVQLLESGGGLVQPGGSLRLSCAASGFTFSNYDMSWVRQAPGKGLEWVSAIYHSGSSKYYADSVKGRFTISRDNSKNTLYLQMNSLRAEDTAVYYCARGGSGAWDTGFDYWGQGTLVTVSSASTKGPSVFPLAPSSKSTSGGTAALGCLVKDYFPEPVTVSWNSGALTSGVHTFPAVLQSSGLYSLSSVVTVPSSSLGTQTYICNVNHKPSNTKVDKKV[human IgG1 Fc with changes not shown]GSGSGSGSGSGSGSGSGSQSVLTQPPSASGTPGQRVTISCSGSSSNIGNNYVTWYQQLPGTAPKLLIYADSHRPSGVPDRFSGSKSGTSASLAISGLRSEDEADYYCATWDYSLSGYVFGCGTKLTVLGGGGSGGGGSGGGGSGGGGSEVQLLESGGGLVQPGGSLRLSCAASGFTFSSYDMSWVRQAPGKCLEWVSWISYSGGSIYYADSVKGRFTISRDNSKNTLYLQMNSLRAEDTAVYYCARDAQRNSMREFDYWGQGTLVTVSS
light: QSVLTQPPSASGTPGQRVTISCSGSSSNIGSNDVSWYQQLPGTAPKLLIYYENNRPSGVPDRFSGSKSGTSASLAISGLRSEDEADYYCGAWDDSLSGYVFGGGTKLTVLGQPKAAPSVTLFPPSSEELQANKATLVCLISDFYPGAVTVAWKADSSPVKAGVETTTPSKQSNNKYAASSYLSLTPEQWKSHRSYSCQVTHEGSTVEKTVAPAECS
notes: As BA6M11(WT)x1A10M12 but with the N297A (NA) mutation in the Fc; also called BA6M11(NA) × 1A10M12
- EC50 [1]: 0.211 nM
- EC50 Ratio (%) [2]: 100%
- EC50 Ratio (%) [3]: 91%
- EC50 Ratio (%) [4]: 81%
- EC50 [5]: 0.236 nM
